# The whole screen tested about 73,000 compounds, of which about 1,800 (2.5%) were called active. Inconclusive results, whose numbers are uncertain, are shown with a selection of clear calls. The call rests on the fitted dose curve; in most records, active means well fitted activation curve with a large enough effect; inconclusive means small, poorly fitted or top-dose-only effect; inactive means no such curve, though single readings can be large or run the other way. Potencies of inconclusive entries are left out as doubtful fits.
# Assay: qHTS Assay for Agonists of the Thyroid Stimulating Hormone Receptor: Activators of Intracellular cAMP Concentrations in Parental HEK 293; further: nearly all actives have a fitted effect of over 55% in size; on activation: % of control where 0% means no effect
# Conditions: parental HEK293 CNG cAMP sensor, membrane potential fluorescence; activation: at 57.1 µM (top of the series) unless noted
# In short: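 Parental HEK 293 cells stably expressing a cAMP-gated CNG channel were loaded with membrane potential dye containing 100 uM RO 20-1724 for 60 min. Compound added for 30 min; depolarization read as fluorescence intensity at 590 nm.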
# Potency means the concentration at half of the fitted maximal effect; tags describe the fitted curve by direction and shape.
Structure (SMILES),Potency,activation
Cc1cccc(CNc2nc(-c3c(C)noc3C)nc3ccccc23)c1,"inconclusive [activator, partial curve]",–
c1ccc2c(c1)oc1c(NCCCN3CCOCC3)ncnc12,"inconclusive [activator, single point]",–
CCn1c(SCC(=O)N2CCCc3ccccc32)nc2cccnc21,inactive,–
COc1ccccc1C(=O)NCCn1cc(SCC(=O)Nc2nnc(C)s2)c2ccccc21,inactive,–
CCOC(=O)C1CCN(C(=O)c2sc3nc(-c4ccc(F)cc4)cn3c2C)CC1,"inconclusive [activator, single point]",–
Cc1cc(S(=O)(=O)N2CCN(c3ccc(F)cc3)CC2)c(C)s1,"inconclusive [activator, single point]",–
O=C(CN(C(=O)CCC(=O)Nc1nccs1)c1ccc2c(c1)OCCO2)NCc1ccco1,inactive,–
COc1ccccc1CC(=N)N1C[C@@H]2C(=O)CCC(c3ccccc3)(c3ccccc3)[C@@H]2C1,"inconclusive [activator, partial curve]",–
Cc1cc(NC(=O)c2oc3ccccc3c2C)ccc1-n1cnnn1,inactive,–
O=C(CSc1nnc(-c2ccc(O)cc2)n1Cc1ccco1)c1cccs1,inactive,–
Cc1ccc(S(=O)(=O)Cn2nnnc2C(CC(C)C)N2CCN(c3ccc(F)cc3)CC2)cc1 (stereo not drawn),inactive,–
O=c1c(O)c(-c2ccc(O)c(O)c2)oc2cc(O)ccc12,inactive,–
CCN(CC)CCC[C@H](C)Nc1c2ccc(Cl)cc2nc2ccc(OC)cc12,inactive,–
Cc1ccc(OCC(=O)Nc2ccc(-c3nc4ncccc4o3)cc2)c(C)c1,inactive,–
O=C(CSc1nnnn1C1CCCC1)N1CCCc2ccccc21,"inconclusive [activator, single point]",–
CCN(CC)c1ccc(-n2c(C)c(C(C)=O)c(C(C)=O)c2C)cc1,active: 15.8 µM,–
Cn1c(C(=O)N2CCCc3ccccc32)cc2sccc21,"inconclusive [activator, partial curve]",–
CCOC(=O)c1c(NC(=O)c2cccs2)sc2c1CCC2,inactive,–
CC(C)Cn1c(N)c(C(=O)CSc2ccc3c(c2)OCCO3)c(=O)n(C)c1=O,"inconclusive [activator, full curve]",–
Cn1c(=O)oc2cc(S(=O)(=O)Nc3ccc4c(c3)OCO4)ccc21,inactive,–
CCCn1c(SCC(=O)NCCc2ccccc2)nnc1-c1cccnc1,"inconclusive [activator, partial curve, poor fit]",–
Cc1ccc(NC(=O)c2oc3ccc(S(=O)(=O)N4CCOCC4)cc3c2C)cc1C,"inconclusive [activator, partial curve]",–
CCOc1ccc2c(c1)C(C)=CC(C)(C)N2,inactive,–
O=C(C1CCN(c2nnc(N3CCCC3=O)s2)CC1)N1CCN(Cc2ccc3c(c2)OCO3)CC1,"inconclusive [activator, full curve, poor fit]",–
Cc1[nH]c(C)c(C(=O)O)c1CNC1CCCCC1C (stereo not drawn),"inconclusive [activator, single point]",–

Structure (SMILES),Potency,activation
CCn1nc(NC(=O)c2ccncc2)c2cc3ccc(C)cc3nc21,inactive,–
Cc1cc(C)n(-c2nc3c(c(=O)[nH]c(=O)n3C)n2Cc2cccc(Br)c2)n1,"inconclusive [activator, single point]",–
COc1ccc(OC)c(-c2nnc(-c3ccc(C)o3)o2)c1,"inconclusive [activator, partial curve]",–
CCOC(=O)c1c(C)[nH]c(C(=O)CSc2nnc(CC(C)c3ccccc3)o2)c1C (stereo not drawn),"inconclusive [activator, partial curve]",–
CCCCOc1ccc(OC(=O)c2cccnc2)cc1,"inconclusive [activator, single point]",–
COC(=O)CSc1nc(C(C)C)nc2ccccc12,"inconclusive [activator, single point]",–
O=C(NC(Cc1ccccc1)C(=O)N1CCCC1C(=O)O)c1ccccc1 (stereo not drawn),inactive,–
O=c1o[nH]c(-c2ccccc2)c1C1=NCCCCC1,"inconclusive [activator, single point]",–
CCCCCOc1ccc(C(=O)NC(CCC)C(=O)O)cc1 (stereo not drawn),–,inconclusive: 35.3% [activator]
CCOC(=O)CSc1nc2cc(C)ccc2cc1C#N,"inconclusive [activator, single point]",–
COc1ccc(CN(C(=O)c2ccco2)c2ccc(Br)cc2)cc1OC,active: 31.6 µM,–
Cc1noc(C)c1COC(=O)c1ccc(S(=O)(=O)NCc2ccco2)cc1,"inconclusive [activator, single point]",–
COc1ccccc1-c1c(C)c(C)nc(N)c1C#N,inactive,–
COC(=O)c1ccccc1NC(=O)CSc1nnc(Cc2ccc(Cl)cc2)o1,"inconclusive [activator, single point]",–
COc1ccc(NC(=O)N2CC[C@@]3(CCCN(C(=O)c4c(C)noc4C)C3)C2)cc1,inactive,–
CC(C)(C)C(=O)Nc1ccc(-c2cn3ccsc3n2)cc1,"inconclusive [activator, single point]",–
CCN1CSC(=S)N(Cc2ccc(OC)cc2)C1,"inconclusive [activator, single point]",–
COc1ccccc1C(=O)Nc1ccc2c(c1)OCO2,"inconclusive [activator, single point]",–
CCSc1ccc2nnc(-c3ccc(F)cc3)n2n1,"inconclusive [activator, partial curve]",–
CCOC(=O)c1ccccc1NC(=O)CSc1nnc(Cc2cccn2C)n1-c1ccc(F)cc1,"inconclusive [activator, partial curve]",–
CCOc1ccc(-c2nnc(-c3ccncc3)o2)cc1,inactive,–
O=C(c1cc(-c2ccc(F)cc2)on1)N1CCCC1,inactive,–
O=C(Oc1ccccc1)N1CCC[C@@]2(CCN(c3ccccn3)C2)C1,"inconclusive [activator, partial curve]",–
Cc1cccc(NC(=O)CSc2nnc(CSc3nc(C)cc(C)n3)n2Cc2ccco2)c1,"inconclusive [activator, partial curve]",–
COc1ccc(-n2c(/C=C(\C)O)nc(=O)c3c(C)cc(C)nc32)cc1,active: 25.1 µM,–

Structure (SMILES),Potency,activation
CCOC(=O)C(C)Sc1nnc(-c2ccccc2O)n1Cc1ccccc1 (stereo not drawn),"inconclusive [activator, partial curve]",–
O=C(c1cnn2c(C(F)(F)F)cc(-c3ccc4c(c3)OCO4)nc12)N1CCCC1,"inconclusive [activator, partial curve]",–
CC(=O)Nc1nc(NC(C)=O)c2[nH]c(CO)nc2n1,–,inactive: 4.53% [at 11.4 µM]
Brc1ccc(Oc2nnnn2-c2ccccc2)cc1,inactive,–
COc1ccc(CNc2ncncc2-c2cccc(NS(C)(=O)=O)c2)c(OC)c1,"inconclusive [activator, single point]",–
COc1ccccc1-n1c(SCC(=O)Nc2ccccc2C)nc(O)cc1=O,"inconclusive [activator, single point]",–
Cc1nc2cnc(N3CCOCC3)nc2n(C)c1=O,inactive,–
COCCOC(=O)c1c(C)n(C)c2ccc(OC(=O)c3cccs3)cc12,"inconclusive [activator, single point]",–
C#CCCCO/N=C1/C[C@@H](O)[C@@H](O)[C@@H]2[C@@H]3C(=O)N([C@@H](C)c4ccccc4)C(=O)[C@H]3CC[C@@H]12,–,inactive: -2.41% [at 11.4 µM]
CCN(Cc1ccccc1)C(=O)Cn1cc2c(n1)CCCC2,"inconclusive [activator, partial curve]",–
CCCOc1ccc2c3c(c(=O)oc2c1)CCCC3,"inconclusive [activator, single point]",–
Cc1ccccc1C(=O)Nc1ccc(Cl)cn1,inactive,–
Cc1ccc(-n2nnnc2SCC(=O)N2CCc3ccccc3C2)c(C)c1,"inconclusive [activator, single point]",–
CC(C)OC(=O)c1cc2c(OC[C@@H](O)CNC(C)(C)C)cccc2[nH]1,inactive,–
Cn1c(SCC(=O)N2CCOCC2)nc2sc3c(c2c1=O)CCCC3,inactive,–
COc1ncc2nc(C)c(=O)n(CCc3ccccc3)c2n1,"inconclusive [activator, single point]",–
O=c1c2ccccc2c2ccccc2c(=O)n1-c1cc2c3ccccc3ccc2c2ccccc12,–,inactive: 0.417% [at 11.4 µM]
Cc1ccccc1C(C(=O)NCc1ccco1)N(CC1CCCO1)C(=O)Cn1nnc2ccccc21 (stereo not drawn),"inconclusive [activator, full curve, poor fit]",–
Cc1nn(Cc2ccccc2)c(Cl)c1C(=O)OCc1nnc(-c2ccccc2)o1,"inconclusive [activator, single point]",–
COc1ccc(CCNC(=O)CC2Oc3ccc(Cl)cc3NC2=O)cc1OC (stereo not drawn),"inconclusive [activator, single point]",–
CCOC(=O)Cn1c(-c2nonc2NC(=O)c2ccccc2F)nc2ccccc21,inactive,–
O=c1[nH]c(SCc2cccc(Cl)c2)nc2c1CCCC2,"inconclusive [activator, single point]",–
O=C1c2ccccc2C(Nc2ccc(S(=O)(=O)N3CCCCCC3)cc2)N1Cc1ccco1 (stereo not drawn),"inconclusive [activator, partial curve]",–

# Reference: PubChem BioAssay AID938 (National Center for Advancing Translational Sciences (NCATS), 2007)
